# Experimental data: PubChem BioAssay (Tox21)
# Several values for one entry are separate records, joined by “and”; a condition that tells them apart may be missing. Identical values can stand only once. The inconclusive results got no clear call from the source; some entries with a clear call stand among them for comparison. For some of these results: Potencies beside an inconclusive call are fits to weak or partial responses and may not hold up. Activity calls are given as the source filed them. Unless noted, calls come from the whole dose curve; as a rule, active = well fitted curve in the direction sought with a large enough effect in the repeat runs; inconclusive = weak or mixed curves; inactive = no such curve, though single readings can be large; an effect the other way counts as inactive or inconclusive.
# Assays:
# [1] = qHTS assay to identify small molecule antagonists of the androgen receptor (AR) signaling pathway using the MDA cell line in the presence of 0.5 nM R1881 - cell viability counter screen (AID 1259242); note: potency is the fitted concentration of half-maximal effect; nearly all actives have a fitted effect of over 45% in size
# In short: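 Cells seeded at 3,000/well and allowed 5 hr at 37C, 0% CO2 before compound transfer and R1881 (0.5 nM final) addition; 16 hr later, live-cell protease fluorescence indicated cytotoxicity.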
# [2] = biological target: Estrogen receptor (Homo sapiens) (UniProt P03372); test: qHTS assay to identify small molecule antagonists of the estrogen receptor alpha (ER-alpha) signaling pathway using the BG1 cell line in the presence of 0.1 nM 17-beta-estradiol (AID 1259244); note: potency is the fitted concentration of half-maximal effect; nearly all actives have a fitted effect of over 50% in size
# Sequence of UniProt P03372 (P03372 whole entry, looked up): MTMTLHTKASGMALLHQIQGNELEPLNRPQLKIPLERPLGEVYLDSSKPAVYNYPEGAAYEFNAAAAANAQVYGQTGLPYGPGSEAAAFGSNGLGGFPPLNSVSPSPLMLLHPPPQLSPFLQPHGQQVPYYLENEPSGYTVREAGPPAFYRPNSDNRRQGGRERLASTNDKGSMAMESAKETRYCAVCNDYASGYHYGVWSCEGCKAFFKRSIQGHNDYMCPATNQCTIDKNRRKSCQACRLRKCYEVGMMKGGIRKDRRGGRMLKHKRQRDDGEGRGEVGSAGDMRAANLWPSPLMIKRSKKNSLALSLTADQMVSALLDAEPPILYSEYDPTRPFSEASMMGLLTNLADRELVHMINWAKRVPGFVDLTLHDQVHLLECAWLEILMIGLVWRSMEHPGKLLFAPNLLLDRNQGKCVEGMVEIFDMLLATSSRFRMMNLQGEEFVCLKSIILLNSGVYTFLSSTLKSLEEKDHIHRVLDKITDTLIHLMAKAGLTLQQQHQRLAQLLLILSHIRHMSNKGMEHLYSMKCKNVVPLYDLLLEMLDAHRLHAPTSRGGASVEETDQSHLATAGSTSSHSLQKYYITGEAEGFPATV
# In short: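 Luciferase signal from VM7Luc4E2 ERE-reporter cells, co-dosed with test compound and 0.1 nM final 17beta-estradiol for 22 h, read with ONE-Glo.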
# [3] = qHTS assay to identify small molecule phospholipidosis (PLD) inducers (AID 1259344; active = well fitted curve in the direction sought with a large enough effect; inconclusive = small, poorly fitted or top-dose-only effect, or another doubt; inactive = no such curve, though single readings can be large; an effect the other way counts as inactive or inconclusive; note: potency is the fitted concentration of half-maximal effect)
# In short: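 Phospholipid accumulation was scored by imaging: fixed, Hoechst-counterstained HepG2 cells stained with LipidTOX Red after 24 h compound exposure at 37 C. Read-outs were pit count and pit intensity per well or per cell, with amiodarone and DMSO controls.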
# [4] = qHTS assay to identify small molecule agonists of the sonic hedgehog signaling (Shh) pathway - cell viability counter screen (AID 1259366); note: potency is the fitted concentration of half-maximal effect; nearly all actives have a fitted effect of over 50% in size
# In short: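 NIH/3T3-derived 3T3 Gli1-Luc cells (stable Gli1-responsive firefly luciferase reporter) were seeded, rested 4 hr at 37 C/5% CO2, then exposed to compounds in DMSO for 24 hr; viability was read by CellTiter-Fluor fluorescence in the same wells.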
# [5] = qHTS assay to identify small molecule antagonists of the sonic hedgehog signaling (Shh) pathway (AID 1259369; calls by dose curve; note: potency is the fitted concentration of half-maximal effect; nearly all actives have a fitted effect of over 45% in size)
# In short: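 Read-out is luminescence from a firefly luciferase gene controlled by the Gli1 response element, in 3T3Gli1-Luc cells pre-incubated 4hr then exposed to compounds and conditioned medium for 24hr.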
# [6] = biological target: Estrogen receptor beta (Homo sapiens) (UniProt Q92731); test: qHTS assay to identify small molecule agonists of the estrogen receptor beta (ER-beta) signaling pathway (AID 1259377; active = well fitted activation curve with a large enough effect in the signal ratio in the repeat runs, not every such curve was filed as active; inconclusive = weak or mixed curves, or effect the other way; the % refers to the signal ratio; note: potency is the fitted concentration of half-maximal effect); settings: ER-beta-UAS-bla HEK293T, beta-lactamase FRET ratio, 16 h; activation: at 92.4 µM (top of the series) unless noted
# Sequence of UniProt Q92731 (Q92731 whole entry, looked up): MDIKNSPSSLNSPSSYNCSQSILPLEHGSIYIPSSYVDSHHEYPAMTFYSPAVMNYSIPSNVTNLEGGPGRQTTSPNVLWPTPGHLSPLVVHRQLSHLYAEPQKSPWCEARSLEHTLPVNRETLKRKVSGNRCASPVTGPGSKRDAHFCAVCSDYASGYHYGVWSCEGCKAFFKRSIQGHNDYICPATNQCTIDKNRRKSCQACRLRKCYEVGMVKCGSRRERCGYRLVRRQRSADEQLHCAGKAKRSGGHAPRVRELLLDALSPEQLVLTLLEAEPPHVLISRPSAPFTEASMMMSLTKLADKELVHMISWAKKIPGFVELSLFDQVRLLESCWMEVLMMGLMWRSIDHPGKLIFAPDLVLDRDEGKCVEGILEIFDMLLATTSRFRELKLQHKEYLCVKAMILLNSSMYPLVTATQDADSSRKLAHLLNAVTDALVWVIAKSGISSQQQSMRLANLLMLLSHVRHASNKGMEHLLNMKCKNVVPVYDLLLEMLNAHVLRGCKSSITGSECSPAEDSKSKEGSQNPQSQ
# In short: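 ER-beta-UAS-bla HEK293T (GripTite) cells carrying a UAS-driven beta-lactamase reporter, in medium with 2% charcoal-stripped FBS, were exposed to compounds for 16 hr at 37C; LiveBLAzer B/G FRET substrate was then added and fluorescence read after 2 hours at room temperature.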
# [7] = biological target: Estrogen receptor beta (Homo sapiens) (UniProt Q92731); test: qHTS assay to identify small molecule antagonists of the estrogen receptor beta (ER-beta) signaling pathway (AID 1259378; active = well fitted inhibition curve with a large enough effect in the signal ratio in the repeat runs, not every such curve was filed as active; inconclusive = weak or mixed curves, or effect the other way; inactive = no such curve, though single readings can be large or run the other way; the % refers to the signal ratio; note: potency is the fitted concentration of half-maximal effect; for activity, negative = inhibition: % is set by controls: 0 for no effect and ±100 for the full control effect); settings: ER-beta-UAS-bla HEK293T, beta-lactamase FRET ratio, 16 h; activity, negative = inhibition: at 92.4 µM (top of the series) unless noted
# In short: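 Antagonist mode: compounds added to beta-lactamase reporter HEK293T ER-beta-UAS cells stimulated with E2 (1nM final), 16 hr at 37C. LiveBLAzer B/G FRET substrate, 2 hours room temperature, fluorescence read-out.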
# [8] = qHTS assay to identify small molecule agonists of the androgen receptor (AR) signaling pathway in the presence of an antagonist - cell viability counter screen (AID 1259379); note: potency is the fitted concentration of half-maximal effect; nearly all actives have a fitted effect of over 25% in size
# In short: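 Each compound was tested at 15 concentrations on MDA-kb2 cells in the presence of 3.0uM nilutamide. Viability was measured by CellTiter-Fluor fluorescence after a 16 hr incubation at 37C in a CO2-free atmosphere.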
# [9] = biological target: Androgen receptor (Homo sapiens) (UniProt P10275); test: qHTS assay to identify small molecule antagonists of the androgen receptor (AR) signaling pathway using the MDA cell line in the presence of 0.5 nM R1881 (AID 1259243); note: potency is the fitted concentration of half-maximal effect; nearly all actives have a fitted effect of over 50% in size
# Sequence of UniProt P10275 (P10275 whole entry, looked up): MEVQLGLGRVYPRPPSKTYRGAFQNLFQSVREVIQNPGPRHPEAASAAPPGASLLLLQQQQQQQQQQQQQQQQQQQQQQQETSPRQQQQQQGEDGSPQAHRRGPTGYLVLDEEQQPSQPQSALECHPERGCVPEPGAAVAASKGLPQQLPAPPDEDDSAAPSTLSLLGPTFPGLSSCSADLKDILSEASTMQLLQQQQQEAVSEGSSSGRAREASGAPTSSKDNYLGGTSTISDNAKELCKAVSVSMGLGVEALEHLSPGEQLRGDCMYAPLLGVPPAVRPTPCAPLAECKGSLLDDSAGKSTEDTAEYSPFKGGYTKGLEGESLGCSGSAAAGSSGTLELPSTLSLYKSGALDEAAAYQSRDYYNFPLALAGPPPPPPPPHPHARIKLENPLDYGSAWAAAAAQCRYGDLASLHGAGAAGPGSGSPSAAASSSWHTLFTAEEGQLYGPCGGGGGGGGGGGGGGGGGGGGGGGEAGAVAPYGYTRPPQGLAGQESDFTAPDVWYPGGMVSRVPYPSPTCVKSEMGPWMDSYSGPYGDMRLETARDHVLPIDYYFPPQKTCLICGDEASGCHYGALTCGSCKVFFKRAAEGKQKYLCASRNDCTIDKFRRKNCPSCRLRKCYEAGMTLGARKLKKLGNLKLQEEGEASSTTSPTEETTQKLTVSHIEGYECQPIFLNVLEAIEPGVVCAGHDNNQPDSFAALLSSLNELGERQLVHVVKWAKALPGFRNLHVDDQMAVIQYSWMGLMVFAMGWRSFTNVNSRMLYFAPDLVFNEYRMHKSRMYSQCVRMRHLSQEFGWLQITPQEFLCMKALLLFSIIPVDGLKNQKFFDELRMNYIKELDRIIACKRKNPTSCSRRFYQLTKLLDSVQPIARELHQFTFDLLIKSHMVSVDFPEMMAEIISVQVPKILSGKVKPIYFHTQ
# In short: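 Luminescence from an AR/GR-responsive MMTV-luciferase construct in MDA-kb2 breast carcinoma cells, read 30 min after ONE-Glo, following 16 hr co-treatment with compounds and 0.5 nM R1881.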
# [10] = qHTS assay to identify small molecule antagonists of the sonic hedgehog signaling (Shh) pathway - cell viability counter screen (AID 1259367); note: potency is the fitted concentration of half-maximal effect; nearly all actives have a fitted effect of over 55% in size
# In short: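 Viability was read by CellTiter-Fluor fluorescence in the same wells, reagent added 23 hr into compound treatment and incubated 1 hr at 37C. The 3T3 Gli1-Luc reporter cells (2,000/well) received conditioned medium after compound and ran 24 hr.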
# [11] = qHTS assay to identify small molecule antagonists of the estrogen receptor beta (ER-beta) signaling pathway - cell viability counter screen (AID 1259382); note: potency is the fitted concentration of half-maximal effect; nearly all actives have a fitted effect of over 55% in size
# In short: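 CellTiter-Glo ATP luminescence measured after the LiveBLAzer read in the same wells; ER-beta-UAS-bla HEK293T cells, 16 hr compound treatment with 1nM 17-beta-estradiol agonist at 37C, 5% CO2.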
# [12] = qHTS assay to identify small molecule HDAC inhibitors (AID 1259364);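 note: wild-type HCT-116 cells with endogenous class I/II HDAC activity; potency is the fitted concentration of half-maximal effect; nearly all actives have a fitted effect of over 45% in size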
# In short: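 HCT-116 wt cells, 1,500/well, overnight attach. Compounds (DMSO) 2 h, 37 °C. HDAC-Glo I/II, 30 min RT. Luminescence.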
# [13] = qHTS assay to identify small molecule HDAC inhibitors - cell viability counter screen (AID 1259365); note: potency is the fitted concentration of half-maximal effect; nearly all actives have a fitted effect of over 50% in size
# In short: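 Wild-type HCT-116 cells were seeded at 1,500 per well, incubated overnight at 37 C, then exposed to compounds in DMSO for 2hr. Viability was read by CellTiter-Glo luminescence after 30min at room temperature.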
# [14] = qHTS assay to identify small molecule agonists of the estrogen receptor beta (ER-beta) signaling pathway - cell viability counter screen (AID 1259380); note: potency is the fitted concentration of half-maximal effect; nearly all actives have a fitted effect of over 30% in size
# In short: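 Compounds dissolved in DMSO were pin-transferred onto ER-beta-UAS-bla HEK293T cells that had settled 6 hr, and exposure ran 16 hr at 37C. Following the reporter read, CellTiter-Glo luminescence after 30 min at room temperature indicated cytotoxicity.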
# [15] = biological target: Estrogen receptor (Homo sapiens) (UniProt P03372); test: qHTS assay to identify small molecule agonists of the estrogen receptor alpha (ER-alpha) signaling pathway in the presence of an antagonist (AID 1259383; calls by dose curve; note: top concentration of the series differs between compounds; % is set by controls: 0 for no effect and ±100 for the full control effect; nearly all actives have a fitted effect of over 15% in size)
# In short: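 Luminescent ERE-luciferase reporter, VM7Luc4E2 cells (endogenous ER-alpha); 10.0nM ICI-182,780 final; 15-point compound titration; 22hr at 37C; ONE-Glo, 30min RT.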
# [16] = biological target: Thyrotropin receptor (Homo sapiens) (UniProt P16473); test: qHTS assay to identify small molecule antagonists of the thyroid stimulating hormone receptor (TSHR) signaling pathway (AID 1259385; calls by dose curve; note: potency is the fitted concentration of half-maximal effect; nearly all actives have a fitted effect of over 20% in size); settings: TSHR-HEK293 cAMP HTRF, TSH-stimulated antagonist mode; activity change, negative = inhibition: at 92.4 µM (top of the series) unless noted
# Sequence of UniProt P16473 (P16473 whole entry, looked up): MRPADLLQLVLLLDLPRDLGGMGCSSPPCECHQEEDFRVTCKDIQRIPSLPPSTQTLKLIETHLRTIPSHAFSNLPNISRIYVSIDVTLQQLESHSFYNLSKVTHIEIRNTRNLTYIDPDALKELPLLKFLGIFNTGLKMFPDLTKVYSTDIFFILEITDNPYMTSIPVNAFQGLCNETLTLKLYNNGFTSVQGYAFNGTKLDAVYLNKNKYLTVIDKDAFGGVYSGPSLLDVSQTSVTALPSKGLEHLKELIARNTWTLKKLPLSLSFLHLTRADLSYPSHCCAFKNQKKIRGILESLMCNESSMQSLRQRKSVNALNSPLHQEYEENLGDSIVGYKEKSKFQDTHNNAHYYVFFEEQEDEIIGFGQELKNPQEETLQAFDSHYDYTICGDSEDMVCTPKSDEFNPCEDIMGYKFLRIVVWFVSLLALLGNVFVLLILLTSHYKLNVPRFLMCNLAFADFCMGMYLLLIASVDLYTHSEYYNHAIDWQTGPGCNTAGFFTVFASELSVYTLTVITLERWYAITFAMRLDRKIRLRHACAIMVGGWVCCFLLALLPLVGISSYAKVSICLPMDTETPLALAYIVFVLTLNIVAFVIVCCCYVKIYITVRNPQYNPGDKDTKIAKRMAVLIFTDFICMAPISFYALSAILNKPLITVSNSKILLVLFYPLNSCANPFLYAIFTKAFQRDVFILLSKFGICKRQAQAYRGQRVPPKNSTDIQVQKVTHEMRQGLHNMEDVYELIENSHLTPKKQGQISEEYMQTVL
# In short: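 Antagonist mode: compound-treated TSHR-expressing HEK293 cells were stimulated with 1.5 ng/mL TSH (final) in presence of Ro20-1724 for 30 min at RT. HTRF cAMP detection after 1 h; each compound tested at 15 concentrations, triplicate.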
# [17] = qHTS assay to identify small molecule agonists of the sonic hedgehog signaling (Shh) pathway (AID 1259368; calls by dose curve; note: potency is the fitted concentration of half-maximal effect; nearly all actives have a fitted effect of over 15% in size)
# In short: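 Following a 24 hr incubation with DMSO-dissolved compounds at 37 C, 5% CO2, Gli1-Luc NIH/3T3-derived cells received luciferase reagent for 30 min at room temperature prior to luminescence measurement.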
# [18] = qHTS assay to identify small molecule agonists or antagonists of the thyroid stimulating hormone receptor (TSHR) signaling pathway - wild type cell line counter screen (AID 1259384; calls by dose curve; note: % is set by controls: 0 for no effect and ±100 for the full control effect); settings: HEK293 wild type, cAMP HTRF counter-screen; cAMP activity change: at 92.4 µM (top of the series), stronger effect = higher value unless noted
# In short: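 Counter screen in untransfected Hek293: compounds (15-point titration, triplicate) plus phosphodiesterase inhibitor Ro20-1724 added after 18 h plating; 30 min RT. Intracellular cAMP via competitive d2/cryptate immunoassay, 1 h incubation.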
# [19] = qHTS assay to identify small molecule agonists of the estrogen receptor alpha (ER-alpha) signaling pathway in the presence of an antagonist - cell viability counter screen (AID 1259386);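 note: potency is the fitted concentration of half-maximal effect; cells exposed to compounds for 22 h at 37 °C before the viability read; nearly all actives have a fitted effect of over 30% in size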
# In short: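 Using estrogen-depleted VM7Luc4E2 cells, the 15-concentration compound series was applied together with 10.0nM ICI-182,780 and incubated 22hr at 37C/5% CO2. Cell viability was then scored by CellTiter-Fluor.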
# Tags give direction and shape of the fitted curve or compound fluorescence and quenching.
smiles,measurement,setting,value
C[C@]12CC[C@@H]3c4ccc(O)cc4CC[C@H]3[C@@H]1CC[C@@H]2OC(=O)CCC1CCCC1,Potency,[1],inconclusive: 68.6 µM [cytotoxic]
same,Potency,[2],"inconclusive: 68.6 µM [inhibitor, single point]"
same,Potency,[3],"inconclusive: 10 µM [activator, partial curve, poor fit]"
same,Potency,[4],"inconclusive: 33.5 µM [cytotoxic, single point]"
same,Potency,[5],"inconclusive: 13.7 µM [inhibitor, full curve] and active: 13.3 µM"
same,Potency,[6],active: 2.2 nM and active: 2.7 nM
same,Potency,[7],"inconclusive: 8.6 nM [activator, full curve] and inconclusive: 6.68 µM [activator, partial curve]"
same,Potency,[8],"inconclusive: 68.6 µM [cytotoxic, single point]"
BrC1CCC(Br)C(Br)CCC(Br)C(Br)CCC1Br (stereo not drawn),Potency,[1],"inconclusive: 68.3 µM [cytotoxic, single point]"
same,Potency,[9],"inconclusive: 68.3 µM [inhibitor, single point]"
same,Potency,[10],"inconclusive: 68.3 µM [cytotoxic, single point]"
same,Potency,[5],"inconclusive: 96.5 µM [inhibitor, partial curve, poor fit]"
same,"activity, negative = inhibition",[7],inconclusive: -23.3%
same,Potency,[8],"inconclusive: 68.3 µM [cytotoxic, single point]"
same,Potency,[11],active: 54.3 µM and active: 46.1 µM
Cc1cc(O)c2ccccc2c1O,Potency,[1],active: 18.8 µM
same,Potency,[9],active: 11.9 µM
same,Potency,[12],"inconclusive: 18.8 µM [inhibitor, partial curve, poor fit]"
same,Potency,[13],"inconclusive: 33.5 µM [cytotoxic, single point]"
same,Potency,[5],active: 13.3 µM
same,Potency,[14],active: 13.3 µM
same,Potency,[15],inactive
same,Potency,[16],inconclusive: 29.8 µM
COc1cc(/C=C/C(=O)CC(=O)/C=C/c2ccc(O)c(OC)c2)ccc1O,Potency,[1],"inconclusive: 54.8 µM [cytotoxic, partial curve]"
same,Potency,[2],"inconclusive: 77.4 µM [inhibitor, single point]"
same,Potency,[13],"inconclusive: 69 µM [cytotoxic, single point]"
same,Potency,[10],active: 24.5 µM
same,Potency,[17],inconclusive: 24.5 µM [activator]
same,Potency,[7],inconclusive: 27.5 µM
same,Potency,[11],"inconclusive: 69 µM [cytotoxic, single point]"
same,Potency,[16],"inconclusive: 27.5 µM [falling, single point]"
Cc1cc(Cc2cc(C)cc(C(C)(C)C)c2O)c(O)c(C(C)(C)C)c1,Potency,[1],"active: 30.8 µM and inconclusive: 61.1 µM [cytotoxic, single point]"
same,Potency,[2],"inconclusive: 68.6 µM [inhibitor, single point]"
same,Potency,[4],"inconclusive: 68.6 µM [cytotoxic, single point]"
same,Potency,[10],"active: 61.4 µM and inconclusive: 77 µM [cytotoxic, single point]"
same,Potency,[5],"inconclusive: 24.5 µM [inhibitor, partial curve, poor fit] and inconclusive: 68.6 µM [inhibitor, single point]"
same,Potency,[7],"inconclusive: 43.5 µM [cytotoxic, partial curve] and inconclusive: 68.6 µM [cytotoxic, single point]"
same,Potency,[11],active: 17.3 µM and active: 21.7 µM
NCc1cccc(C2CCN(C(=O)c3ccc(C#Cc4ccccc4F)o3)CC2)c1,Potency,[1],"inconclusive: 68.6 µM [cytotoxic, partial curve, poor fit]"
same,Potency,[9],"inconclusive: 77 µM [inhibitor, single point]"
same,Potency,[13],"inconclusive: 54.5 µM [cytotoxic, partial curve]"
same,Potency,[4],active: 30.6 µM
same,Potency,[7],active: 54.5 µM
same,Potency,[8],"inconclusive: 68.6 µM [cytotoxic, single point]"
same,Potency,[14],"inconclusive: 68.6 µM [cytotoxic, single point]"
same,cAMP activity change,[18],inconclusive: 1.84%
same,Potency,[16],inconclusive: 68.6 µM
same,Potency,[19],"inconclusive: 30.6 µM [cytotoxic, partial curve]"
CN(C)CCOc1ccc(/C(=C(/CCCl)c2ccccc2)c2ccccc2)cc1,Potency,[1],inconclusive: 57.2 µM [cytotoxic]
same,Potency,[9],"inconclusive: 57.2 µM [inhibitor, single point]"
same,Potency,[3],"inconclusive: 11.2 µM [activator, partial curve]"
same,Potency,[10],"inconclusive: 57.2 µM [cytotoxic, single point]"
same,Potency,[6],inconclusive: 57.2 µM [single point]
same,Potency,[7],"inconclusive: 64.2 µM [cytotoxic, single point]"
same,Potency,[8],"inconclusive: 57.2 µM [cytotoxic, single point]"
same,Potency,[14],active: 40.5 µM
same,Potency,[11],active: 45.5 µM
same,Potency,[16],active: 40.5 µM
